# Measurements as given in paper PMC6919601, “Identification of Plasmodium dipeptidyl aminopeptidase allosteric inhibitors by high throughput screening” (PLoS ONE, 2019).
# In all, about 110,000 compounds went through this assay and about 230 (0.21%) showed an effect of 50% or more. The list shows a part of the results.
# Target: DPAP1 (Plasmodium falciparum, UniProt Q8IIJ9)
# Test: primary screen, percent inhibition; read by cleavage of a fluorogenic dipeptide substrate; higher = more effect of the substance
# Parameters: species or system P. falciparum D10 trophozoite lysates; single well
# 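Note: 30 min substrate incubation versus DMSO and 10 µM JCP410 controls.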
# DPAP1, sequence (Q8IIJ9 whole entry, looked up): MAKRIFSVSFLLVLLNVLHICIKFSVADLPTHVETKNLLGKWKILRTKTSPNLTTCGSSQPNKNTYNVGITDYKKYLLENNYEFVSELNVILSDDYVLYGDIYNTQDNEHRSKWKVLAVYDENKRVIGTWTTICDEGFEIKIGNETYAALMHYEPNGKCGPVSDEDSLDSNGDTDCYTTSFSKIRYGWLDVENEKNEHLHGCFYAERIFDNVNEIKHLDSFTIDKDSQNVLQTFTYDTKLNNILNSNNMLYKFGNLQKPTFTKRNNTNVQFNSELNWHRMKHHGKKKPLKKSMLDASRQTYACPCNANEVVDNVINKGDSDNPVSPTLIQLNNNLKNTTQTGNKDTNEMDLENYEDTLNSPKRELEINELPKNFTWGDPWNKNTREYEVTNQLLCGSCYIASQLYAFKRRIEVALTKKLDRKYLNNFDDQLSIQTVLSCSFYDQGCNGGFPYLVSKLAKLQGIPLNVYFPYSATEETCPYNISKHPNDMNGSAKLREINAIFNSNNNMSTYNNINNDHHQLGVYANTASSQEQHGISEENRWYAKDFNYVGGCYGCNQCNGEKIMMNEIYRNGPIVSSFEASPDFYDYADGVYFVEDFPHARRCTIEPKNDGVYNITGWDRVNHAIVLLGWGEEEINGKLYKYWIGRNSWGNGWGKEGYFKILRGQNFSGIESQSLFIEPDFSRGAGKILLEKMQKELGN
row,SMILES,% Inhibition @ 10 uM [%]
1,COc1ccc(NC(=O)/C=C\C(=O)O)cc1,-1.77
2,N#CC1=C(SCC(=O)Nc2nccs2)NC(=O)CC1c1cccs1 (centres unmarked),2.38
3,Cc1cc2oc(C(=O)N(Cc3ccccc3)C3CCS(=O)(=O)C3)c(C)c2cc1C (centres unmarked),0.389
4,COCc1nc2ccccc2n1CCOc1ccccc1C,-3.79
5,Cc1ccc(-c2nn(CC(=O)NC3CCCc4ccccc43)c(=O)c3ccccc23)cc1 (centres unmarked),-3.44
6,Cc1ccc(/C=C2\SC(N3CCN(Cc4ccccc4)CC3)=NC2=O)cc1,-1.42
7,O=C(O)COc1nc(-c2ccccc2)sc1C(=O)O,-2.83
8,CC1CCN(C(=O)c2nn(C)c3c2CCc2sccc2-3)CC1,2.98
9,O=C(NC1=NCCS1)c1ccc(N2C(=O)c3ccccc3C2=O)cc1,-2.32
10,CCN(C(=O)COc1ccc(C)cc1Br)c1ccccc1,-3.58
11,NC(=O)C1CCCN(C2CCC(c3ccccc3)CC2)C1 (centres unmarked),-3.27
12,COc1cc(OC)cc(C(=O)N2CCN(Cc3cccc(Cl)c3)CC2)c1,-14.4
13,CCOC(=O)Nc1ccc(-c2cccc(C(CS(=O)(=O)Cc3ccccc3OC(F)F)C(=O)NCC#N)c2)cc1 (centres unmarked),-3.49
14,CC[C@H](NC(=O)[C@@H](NC(=O)c1ccc(-c2ccccc2Cl)cc1)C1CCCCC1)C(=O)c1nc2ccccc2o1,-1.82
15,COC(=O)c1c(C)[nH]c(C(=O)CSc2nnc3ccccn23)c1C,-1.4
16,CC1=C(C(=O)OC(C)C)C(c2c(O)ccc3ccccc23)NC(=O)N1 (centres unmarked),-1.29
17,O=C(CCc1ccc(S(=O)(=O)NCCc2ccccc2)cc1)N1CCc2ccccc2C1,6.42
18,Clc1ccc(-n2cc(-c3ccccc3)c3c(NCCCN4CCOCC4)ncnc32)cc1,-3.56
19,Cc1nnc(SCC(=O)NCCC(C)C)c2nn(-c3ccccc3)c(C)c12,0.535
20,O=C1c2ccccc2C(NCc2cccnc2)N1Cc1cccnc1 (centres unmarked),-10.8
21,COc1ccc(C(=O)Nc2ccc(Cl)c(Cl)c2)cc1,-6.86
22,O=C(Nc1ccc(Oc2ccccc2)cc1)C1CC1,-4.7
23,N#CCNC(=O)[C@@H](Cc1ccccc1C#N)NC(=O)OCc1ccccc1,-4.82
24,COc1cc(C2CC(=O)Nc3cc4c(cc32)OCO4)cc(OC)c1OC (centres unmarked),-1.52
25,O=C(Nc1ccccc1)c1ccc(O)c([N+](=O)[O-])c1,6.15

row,SMILES,% Inhibition @ 10 uM [%]
1,O=C(NCc1ccc(F)cc1)NCc1noc2ccccc12,2.75
2,Nc1c(C(=O)Nc2ccc3c(c2)OCO3)sc2nc3c(cc12)CCCC3,4.42
3,O=C(O)C(=O)c1cccnc1O,-1.85
4,Cn1c(=O)c2c(nc(O)n2C)n(Cc2ccccc2)c1=O,-1.04
5,CCc1ccc2oc(C(=O)Nc3cccnc3)cc(=O)c2c1,0.248
6,CN1CCc2c(sc3c2C(=O)NC(c2ccccn2)N3)C1 (centres unmarked),4.54
7,CC(C)(C)C1CCC(N2CCCC(O)C2)CC1 (centres unmarked),3.48
8,CCOc1ccc(Cc2nc3ccccc3[nH]2)cc1,2.45
9,Cc1ccc(/N=C2\CCCN2C(=O)c2ccc(F)cc2)cc1Cl,-2.45
10,O=C(C1CCC(CNS(=O)(=O)c2cccc3nsnc23)CC1)N1CCn2c1nc1ccccc12 (centres unmarked),-4.1
11,N#CCCS(=O)(=O)c1ccc(Cc2ccc(S(=O)(=O)CCC#N)cc2)cc1,-1.77
12,O=C(NCC1COc2ccccc2O1)c1ccccc1 (centres unmarked),-5.29
13,COCCNC(=S)N1CCc2cc(OC)c(OC)cc2C1COc1cc(=O)oc2ccccc12 (centres unmarked),0.813
14,COC(=O)c1ccc2oc(=O)c(-c3nc(-c4nonc4N)no3)cc2c1,2.96
15,CCc1nc2nc(C)cc(NCCc3ccccc3)n2n1,3
16,Cc1cccc(NC(=O)Nc2noc3c2COc2ccccc2-3)n1,0.589
17,COc1ccc(CCNCc2ccc(C(=O)O)s2)c(OC)c1,1.03
18,Cc1cc(O)nc(SC(C)C(=O)Nc2ccccc2C)n1 (centres unmarked),-4.01
19,CC(=O)c1ccc(-c2ccc(/C=c3\sc4nc(C5COc6ccccc6O5)nn4c3=O)o2)cc1 (centres unmarked),0.222
20,CCOC(=O)c1c(C)oc2cc(Br)c(OC)c(Br)c12,-2.63
21,COc1ccccc1C1CC2=NC(C)=C(C(=O)OC3CCCC3)C(c3ccsc3)C2=C(O)C1 (centres unmarked),3.87
22,CC(=O)C1=C(C)OC(N)=C(C#N)C1c1cc2c(cc1[N+](=O)[O-])OCO2 (centres unmarked),-1.29
23,C=CCN1C(=O)C(NC(=O)c2ccccc2)(C(F)(F)F)N=C1c1ccccc1 (centres unmarked),-4.78
24,CCOc1ccc(C2=CC(c3ccc(Cl)cc3)n3nnnc3N2)cc1 (centres unmarked),1.73
25,COC(=O)CCP(C)(=O)OCC(C)C (centres unmarked),-0.415
